The text below walks through data of PubChem BioAssay (NCATS).

Each structure is given as a SMILES string. “And” between values parts separate entries of the source, which are not always exact repeats. Equal values may be shown once. The list shows a part of the results. Shown are side measurements of this screen, not its main read-out; they come without a call. Most of these compounds were active or inconclusive in the main read-out, so they are no random draw. For part of these data: The note in brackets gives the kind of curve behind each potency; many fits are weak.

Assay [1] is described as follows: qHTS Assay for Lipid Storage Modulators (AID 1519). The settings on record: Drosophila S3 cells, BODIPY lipid droplet/cell ratio, laser cytometry, cells loaded with oleic acid. Put shortly: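 Cells seeded at 5,000 per well were treated with compounds over a concentration series and loaded with oleic acid (400 uM, as added). Lipid droplet fluorescence (488 nm excitation, 500-530 nm channel) was read by laser-scanning cytometry and normalized to 20 uM Triacsin C.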

The nature of assay [2]: qHTS assay for small molecule antagonists of peroxisome proliferator-activated receptor delta signaling (AID 588535).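 Further: cells co-treated with a PPAR-delta agonist as stimulator during compound exposure.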 To be noted: HEK293T PPARd-UAS-bla, beta-lactamase FRET ratio, 18 h; 460 nm channel. In short, it runs like this: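 HEK293T PPAR-delta-UAS-bla cells, 4000/well, 2% charcoal/dextran FBS; 5 h 37 C; cpd titration; 18 h 37 C; CCF4 2 h RT; FI 460/530 nm; Hill fit → IC50, efficacy.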

Assay [3] in a line: qHTS assay for small molecule agonists of retinoid X receptor alpha signaling (AID 588544). The settings on record: HEK293T RXRa-UAS-bla, beta-lactamase reporter, 18 h; 530 nm emission.
Assay [4] is described as follows: qHTS Assay for Inhibitors of PDE-IV (AID 607).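 Further: parental cells stimulated with forskolin 10 µM plus RO 20-1724 100 µM.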 To be noted: HEK293 ACTOne CNG channel cells, membrane potential fluorescence; measured here: parental cell counter-screen. In short, it runs like this:
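Cell-based read-out of cAMP via a modified cyclic nucleotide-gated channel and membrane potential dye (535/590 nm) in HEK293 cells expressing PDE4 endogenously. Compounds tested up to 22.9 uM final; 100 uM RO 20-1724 reference.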

Assay [5] is described as follows: qHTS Assay for Modulators of Human Peripheral Myelin Protein 22 (PMP22) Expression/Activity (AID 1967). The settings on record: Cell-based PMP22 reporter, dual-color luciferase ratio. Put shortly: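 MSC80 mouse Schwann cells stably carrying Pmp22 promoter–green click beetle luciferase plus EF-alpha–red luciferase control were dosed for 24h at 37 °C. Dual-colour luminescence was filter-overlap corrected; %Activity came from green/red ratio versus untreated cells.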

Assay [6] can be described thus: Nrf2 qHTS screen for inhibitors: Validation (AID 493153). The settings on record: A549 ARE-Fluc reporter, 18-24 h; AC50: CellTiter-Fluor fluorescence read, measured here: cytotoxicity CellTiter-Fluor AC50; viability change: measured here: cytotoxicity max response. In short, it runs like this: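 A549 cells carrying ARE-firefly luciferase reporter, 5000 cells/well in 5% FBS OPTI-MEM, treated with compound over a concentration series for 18-24 h at 37 C. Luciferase luminescence gave Nrf2 activity; CellTiter-Fluor fluorescence gave viability.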

Assay [7] is described as follows: S16 Schwann cell PMP22 intronic element beta-lactamase assay (AID 624044). Further: nearly all actives have a fitted effect of over 15% in size. To be noted: S16 rat Schwann cells, PMP22 element beta-lactamase FRET, 24 h. In short, it runs like this: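 Rat S16 Schwann cells with beta-Lac driven by a PMP22 intronic element, compound-treated 24 h at 37 °C. LiveBLAzer FRET B/G read: 460 nm normalized to potassium clavulanate vs DMSO; 535 nm FRET as viability; concentration-effect curves classified.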

A short description of assay [8]: qHTS for identification of novel therapeutic agents for treatment of microphthalmiaassociated transcription factor (MiT) renal cell carcinoma (RCC) (AID 1963991). The settings on record: CellTiter-Glo, 48 h; for z-score: stronger effect = lower value. Put shortly:
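Curves over 11 concentrations were fitted to CellTiter-Glo luminescence, scaled between empty wells (0%) and DMSO (100%) viability. Cells were UOK109, UOK124 and UOK145 TFE3-fusion RCC lines at 500/well, exposed 48 hours at 37 C.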

Assay [9] in a line: qHTS assay for small molecule antagonists of retinoid X receptor alpha signaling (AID 588546).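 Further: cells stimulated with 9-cis-retinoic acid as agonist; on the % scale 0 is the no-effect control and ±100 the full control effect.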 The settings on record: HEK293T RXRa-UAS-bla, beta-lactamase ratio, antagonist mode; measured here: W530 green channel, cytotoxicity proxy. In short, it runs like this: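 Beta-lactamase reporter inhibition, read as CCF4 fluorescence ratio (ex 405, em 460/530 nm) after 2 h at RT. HEK293T UAS-bla cells, 2500/well, were stimulated with 9-cis-RA at 500 or 100 nM final alongside test compound for 18 h at 37 C.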

A short description of assay [10]: qHTS assay for small molecule antagonists of peroxisome proliferator-activated receptor gamma signaling (AID 588537). To be noted: HEK293 PPARg-UAS-bla, beta-lactamase ratio, antagonist mode; measured here: W460 blue channel. Put shortly: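 Antagonist mode, beta-lactamase reporter in HEK293; charcoal/dextran FBS 1%; 3000 cells/well, 37 C 6-6.5 h; cpd titration + rosiglitazone 50 nM final, 16 h 37 C; CCF4, 2 h RT; 460/530 nm; Hill fit → IC50, efficacy.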

Assay [11] is described as follows: qHTS assay for small molecule antagonists of vitamin D receptor signaling (AID 588541). The settings on record: HEK293T VDR-UAS-bla, beta-lactamase ratio, antagonist mode; measured here: W460 blue channel (cell viability).
The mark [12] stands for this setting: measured here: cell count channel max response.
Setting [13] is: measured here: cell number channel AC50.
[14] abbreviates: measured here: lipid (BODIPY) channel AC50.
The mark [15] stands for this setting: measured here: lipid channel max response.
[16] abbreviates: measured here: red reporter channel AC50, EF-alpha promoter control reporter in MSC80 mouse Schwann cells.
Where [17] appears, read: measured here: 460 nm blue channel.
The mark [18] stands for this setting: measured here: 530 nm viability channel.
Where [19] appears, read: TFE3-RCC UOK109 viability, measured here: UOK109 Z-AUC.
The mark [20] stands for this setting: TFE3-RCC viability, measured here: UOK124 Z-AUC.
[21] abbreviates: TFE3-RCC viability, measured here: UOK145 Z-AUC.
The mark [22] stands for this setting: TFE3-RCC viability, measured here: UOK145 cell viability.
Tags describe the fitted curve by direction and shape.

Consider `COc1ccc2c(c1OC)C(=O)OC2C1c2cc3c(cc2CCN1C)OCO3` (centres undefined), for which the max response in assay [1] (setting [12]) is 24.9% and 9.21% and 103%; in [1] (setting [15]), 48.9% and 25.8% and 132%; in assay [2], 55.4%. For the same compound, the AC50 in assay [1] (setting [13]) was 5.01 µM [rising, full curve]; in [1] (setting [14]), 11.2 µM [rising, partial curve] and 631 nM [rising, full curve, poor fit] and 5.01 µM [rising, full curve].

Consider `CCn1cc(C(=O)O)c(=O)c2ccc(C)nc21`, for which the max response was 42.8% and 47.2% in [1] (setting [12]); 55.9% and 46% in assay [1] (setting [15]); 95.3% in assay [2]; 21.8% in assay [3]. In addition, the half-maximal activity concentration (AC50) in [1] (setting [13]) is 31.6 µM [rising, single point]; in [1] (setting [14]), 31.6 µM [rising, single point].

Consider `COC(=O)CN1CN(c2ccccc2)C2(CCN(Cc3ccc4ccccc4c3)CC2)C1=O`, for which the half-maximal activity concentration (AC50) was 20 µM [rising, single point] in [4]; 28.2 µM [rising, partial curve, poor fit] in assay [1] (setting [13]); 25.1 µM [rising, partial curve] in assay [1] (setting [14]). The max response in assay [1] (setting [12]) is 75.3%; in [1] (setting [15]) it was 99.9%.

`CCCCN(CC)c1c([N+](=O)[O-])cc(C(F)(F)F)cc1[N+](=O)[O-]`: the max response in assay [1] (setting [12]) was -52.4%; in assay [1] (setting [15]) it was -78.3%; in assay [3], 10.7%. Besides, the half-maximal activity concentration (AC50) in [1] (setting [13]) is 25.1 µM [falling, single point]; in assay [1] (setting [14]), 28.2 µM [falling, partial curve].

Consider `C[Se]C[C@H](N)C(=O)O`, for which the values for the max response in [1] (setting [12]) and in [1] (setting [15]) were 24.1% and 20.9%, respectively. Also, the AC50 was 2.82 µM [falling, full curve, poor fit] in assay [1] (setting [14]); 37.9 µM [falling, full curve] in [5] (measured here: green reporter channel AC50, mouse Pmp22 promoter in mouse Schwann cells); 42.6 µM [falling, full curve] in assay [5] (setting [16]). Also, the viability change in [6] was -11.6%.

Turning to `COc1ccc(C(=O)N2CCCC2=O)cc1`, the max response was 24.1% and 27.3% in assay [1] (setting [12]); 36.1% and 42.1% in [1] (setting [15]). Besides, the AC50 is 31.6 µM [rising, single point] and 39.8 nM [rising, full curve, poor fit] in [1] (setting [14]); 0.178 µM [falling, full curve, poor fit] in assay [7] (setting [17]); 0.316 µM [falling, full curve] in assay [7] (setting [18]); 18.7 µM [falling, partial curve, poor fit] in assay [8] (setting [22]). For the same compound, the z-score in [8] (setting [19]) stood at 0.37; in [8] (setting [20]), 0.152; in assay [8] (setting [21]) it was 0.348.

For the compound `CC(C)(O)C1C2OC(=O)C1[C@]1(O)C[C@H]3O[C@]34C(=O)O[C@H]2[C@]14C` (some centres undefined) (tested in a mixture with another compound), the results for the max response in assay [1] (setting [12]) and in assay [1] (setting [15]) were 57.1% and 41.4%, respectively. In addition, the AC50 in assay [1] (setting [14]) is 5.62 µM [falling, full curve, poor fit]; in assay [5] (setting [16]) it was 84.9 µM [falling, single point].

For `CCOP(=S)(OCC)SCn1c(=O)oc2cc(Cl)ccc21`, the max response in assay [1] (setting [12]) is 30.4%; in assay [1] (setting [15]), 43.9%; in assay [3], 27.9%; in [9] it was 5.53%. In addition, the concentration at half-maximal activity (AC50) in assay [1] (setting [13]) was 15.8 µM [rising, partial curve]; in assay [1] (setting [14]), 7.94 µM [rising, partial curve].

With `CC(C)c1cccc(C(C)C)c1O`, the max response in assay [1] (setting [12]) is -37.8% and -1.94%; in assay [1] (setting [15]), -32.2% and -2.46%. In addition, the AC50 in assay [1] (setting [13]) was 14.1 µM [falling, partial curve]; in [1] (setting [14]), 10 µM [falling, partial curve, poor fit] and 3.55 µM [falling, full curve, poor fit]; in assay [10] it was 50.1 µM [rising, single point].

As for `CCOP(=S)(OCC)Oc1nc(Cl)c(Cl)cc1Cl`, the max response was 46.8% in assay [1] (setting [12]); 61.3% in assay [1] (setting [15]); 81.8% and 111% and 64.5% in [2]; 30.3% and 29.2% and 25.8% in [3]. Further, the concentration at half-maximal activity (AC50) in assay [1] (setting [13]) is 2.82 µM [rising, full curve]; in [1] (setting [14]), 2.82 µM [rising, full curve]; in assay [10], 0.398 µM [falling, full curve, poor fit]; in assay [11], 0.0126 µM [rising, full curve, poor fit].

Take `Cc1cccc([C@H](C)c2cnc[nH]2)c1C`: the values for the max response in [1] (setting [12]) and in assay [1] (setting [15]) were 122% and 159%, respectively. Moreover, the half-maximal activity concentration (AC50) in [1] (setting [13]) was 4.47 µM [rising, partial curve]; in assay [1] (setting [14]) it was 7.08 µM [rising, partial curve]; in assay [7] (setting [17]), 14.1 µM [falling, single point]; in assay [7] (setting [18]), 2.82 µM [falling, partial curve].

Turning to `O=c1cccc2n1CC1CNC[C@H]2C1`, the max response was -28.7% in [1] (setting [12]) and -36.3% in assay [1] (setting [15]). Moreover, the AC50 was 7.94 µM [falling, full curve, poor fit] in [1] (setting [14]); 2.35 µM [falling, full curve] in [8] (TFE3-RCC viability, measured here: UOK124 cell viability); 18.7 µM [falling, partial curve] in assay [8] (setting [22]). The z-score in assay [8] (setting [19]) was -0.421; in [8] (setting [20]), 0.0551; in [8] (setting [21]) it was 0.205.

Consider `C=CCN1C[C@H](C)N([C@H](c2ccc(C(=O)N(CC)CC)cc2)c2cccc(OC)c2)C[C@H]1C`, for which the max response in [1] (setting [12]) worked out at 53.2%; in [1] (setting [15]), 72.7%. Further, the AC50 in [1] (setting [13]) is 12.6 µM [rising, full curve, poor fit]; in assay [1] (setting [14]) it was 12.6 µM [rising, full curve, poor fit]; in [7] (setting [17]), 25.1 µM [rising, partial curve, poor fit]; in assay [7] (setting [18]) it was 15.8 µM [rising, partial curve].

Regarding `Clc1cccc(N2CCNCC2)c1`, the max response was 0.7% and -18.8% in assay [1] (setting [12]); 0.848% and -15.6% in assay [1] (setting [15]). Also, the AC50 is 0.398 µM [falling, full curve, poor fit] in assay [1] (setting [13]); 15.8 µM [rising, single point] and 398 nM [falling, full curve, poor fit] in [1] (setting [14]); 2.51 µM [falling, full curve, poor fit] in assay [7] (setting [17]).
